# Data from the RNAGym collection of RNA variant scans (doi:10.1073/pnas.2313332121).
# Variants at the background level are over-represented here.
# B1: TPR 5TU (parent)
# chain: GGAUCUUCUCGAUCUAACAAAAAAGACAAAUCUGCCACAAAGCUUGAGAGCAUCUUCGGAUGCAGAGGCGGCAGCCUUCGGUGGCGCGAUAGCGCCAACGUUCUCAACUAUGACACGCAAAACGCGUGCUCCGUUGAAUGGAGUUUAUCAUG
# Variants of: B1
# Assay: polymerase ribozyme fitness, log enrichment relative to wild type (log ratio); higher = more active; in vitro selection for triplet polymerase activity
# Method in brief: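 Mutant libraries of each subunit of a heterodimeric triplet polymerase ribozyme were built by PCR and transcribed. Each library went through one round of in vitro selection in triplicate: annealing with biotinylated primer, partner subunit and triplets, frozen incubation at −7 °C, gel excision of extended constructs, streptavidin-bead capture and RT-PCR. Input and output libraries were Illumina-sequenced; only genotypes with ≥10 input reads and ≥1 read per output were kept. Fitness is log2(genotype enrichment/wild-type enrichment), using inverse-variance-weighted replicate averages.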
row,Variant,polymerase ribozyme fitness (log ratio)
1,A3G A60C C76G A91U,≤ -4.2
2,A3C C10U A22C A26U C38G G74U C87U G92A C129A U130C,≤ -4.2
3,A3G A20C C38U A41C C57A A60C C79A A89U,≤ -4.2
4,A3G U33C G58C C116G U139A G141U U146C,≤ -4.2
5,A3G A17U A26C G50A U55C C75U C95A G141U,≤ -4.2
6,A3U U77C U82G A91G A98G U148C,≤ -4.2
7,U4A A47C G84U C95G C149A,≤ -4.2
8,A3G A17G U55C G92A U148G,≤ -4.2
9,A3U A19G A20U U55A G58U U78A U90A U101G,≤ -4.2
10,A3U G59A G74U A113U A121U,≤ -4.2
11,A3G A91U C103G A110C G133C U145G,≤ -4.2
12,A3U U6G C36U C75U C93U,≤ -4.2
13,U4A G25C C63U A64C U144C C149G,≤ -4.2
14,A3U A64C A73G G81C A115G,≤ -4.2
15,A3G A21G A52G G68A G92U U101G C108G U148C,≤ -4.2
16,A3C A12U G42A G50A C76U G84U G92A A107C C116G,≤ -4.2
17,A3U A17C A47U C93U U104A,-1.38
18,A3U C10G C38A A150G,≤ -4.2
19,U4A A52C U53A C85U A107U A119C C125U,≤ -4.2
20,A3U C8G U31C U109G,≤ -4.2
21,A3G U7C A23U A52G A73U G94A U102G C103G A107U,≤ -4.2

row,Variant,polymerase ribozyme fitness (log ratio)
1,U4A G42C U61G C96G,≤ -4.2
2,A3G A16C A52G G68A A73U C85A U148C G152U,≤ -4.2
3,A3G A30G A47G G71C C87G U135G,≤ -4.2
4,A3G G88U,≤ -4.2
5,A3U G42C C57U G84U,≤ -4.2
6,U4A A23G A30G C93A U145G U146C,≤ -4.2
7,U4A C8U A28U U55A U56A C95A C116G A147U,≤ -4.2
8,A3C A23C G74A C85A C103U U130A,≤ -4.2
9,A3U C108U,-3.59
10,A3U A12C A24U A30U U31G C35G A47U G50U G74A G86A G141A,≤ -4.2
11,A3U G67U A107U,≤ -4.2
12,A3G C38U A64C G74A G80U,≤ -4.2
13,A3U G48U A91C U135G,≤ -4.2
14,A3U C10A A52C C75U C93U A150U,≤ -4.2
15,A3U C36A U55C C79A C99A U145G,≤ -4.2
16,A3G G59C C96A U139C A142G,≤ -4.2
17,A3G U9A A20G U33A C51A C75A G84A A150C,≤ -4.2
18,A3U U4A A19G G42A A47G C57A G84A,≤ -4.2
19,A3C U4A A30U G50C G94A A120G U144G,≤ -4.2
20,A3C C87G A98U C131A,≤ -4.2
21,A3C A28U U31A A49C C57U U135C U139C,≤ -4.2

row,Variant,polymerase ribozyme fitness (log ratio)
1,A3G C43U G65U G68A G71A G86U G112U G152A,≤ -4.2
2,A3G U77C C93G G143C,≤ -4.2
3,U4A A20C A28C A29G C87A G141U,-4.08
4,A3G C5G U7C A12G G65C A119G,≤ -4.2
5,A3G C36U U45G A107U U109C,≤ -4.2
6,A3G C95G C96G G100A,≤ -4.2
7,U4A A21C A37G G59U C93G C96U,≤ -4.2
8,A3G C27A A29G A41U G50A G59A G94U C116U C125A,≤ -4.2
9,A3U A21C C32U A37U G58A A89C C95A A137G,≤ -4.2
10,A3G U9G C99A,≤ -4.2
11,A3C U15G A24G G117A U151A,≤ -4.2
12,A3C A23C C38A G84A,≤ -4.2
13,A3G U31G A39U C57G U61G,≤ -4.2
14,A3U A19U A24U C38A G65C G71A C93A G152C,≤ -4.2
15,A3C U4A U15G C18U U56A C63U G92A C99U C118G A122C U148A,≤ -4.2
16,A3U A30G G42A C75A C95A,≤ -4.2
17,A3C U78C G83U G86A A121C,≤ -4.2
18,A3U A21G G46A C85A C87U U127A U130G,≤ -4.2
19,A3G A52G G84U A106G A107G A119U U145C,≤ -4.2
20,A3U U6A A29G G48A A122C C132U,≤ -4.2
21,A3C U13G A20U U53A A73G C93A C125A A138G U139A G140C,≤ -4.2

row,Variant,polymerase ribozyme fitness (log ratio)
1,A3U A66G C85U C96A,≤ -4.2
2,A3G A26C C57G G65U C131A,≤ -4.2
3,A3U U78G G94A A122G,≤ -4.2
4,A3U A20C C87A A91G U104C C114A G141A,≤ -4.2
5,A3C A22C A23U G42U A64G C87A,≤ -4.2
6,A3U A40U U53C G74U U101G,≤ -4.2
7,A3U A26U C57U C108U C125A A147C U148G,≤ -4.2
8,A3C A22U A37G C54G C57U C85U G88C G117C C129U,≤ -4.2
9,A3C C5U G62C,-1.89
10,A3G U44A C87A U90C C93G C105G A122G,≤ -4.2
11,A3U C51U U53A G84A A106U U148A A150G,≤ -4.2
12,A3G C63G G83A G86U A120G,≤ -4.2
13,A3U A37U U56A A97U,-3.82
14,A3C C8G U9G G59A C87A G92C G117C G133U,≤ -4.2
15,A3G U13A G42C C75U A138U,≤ -4.2
16,A3U G48A A49C U111C G136C,≤ -4.2
17,A3C A26C U101A U109G,≤ -4.2
18,A3C A40G A52G G86U C108G C132U,≤ -4.2
19,A3G C93A C99U C118A,≤ -4.2
20,A3G C18G C87U A91U U139C,≤ -4.2
21,A3G C10U C36U C85A G126A,≤ -4.2
